# Test results reported in PMC4336329 (PLoS ONE, 2015).
# The whole screen tested about 310,000 compounds, of which about 2,200 (0.71%) showed an effect of 50% or more. The effect is printed as a negative number. The list shows a part of the results.
# Biological target: human ether-à-go-go-related gene (hERG) potassium channel (human, UniProt Q12809)
# Assay: primary screen, population patch clamp on CHO cells stably expressing hERG
# Sequence of human ether-à-go-go-related gene (hERG) potassium channel (Q12809 whole entry, looked up): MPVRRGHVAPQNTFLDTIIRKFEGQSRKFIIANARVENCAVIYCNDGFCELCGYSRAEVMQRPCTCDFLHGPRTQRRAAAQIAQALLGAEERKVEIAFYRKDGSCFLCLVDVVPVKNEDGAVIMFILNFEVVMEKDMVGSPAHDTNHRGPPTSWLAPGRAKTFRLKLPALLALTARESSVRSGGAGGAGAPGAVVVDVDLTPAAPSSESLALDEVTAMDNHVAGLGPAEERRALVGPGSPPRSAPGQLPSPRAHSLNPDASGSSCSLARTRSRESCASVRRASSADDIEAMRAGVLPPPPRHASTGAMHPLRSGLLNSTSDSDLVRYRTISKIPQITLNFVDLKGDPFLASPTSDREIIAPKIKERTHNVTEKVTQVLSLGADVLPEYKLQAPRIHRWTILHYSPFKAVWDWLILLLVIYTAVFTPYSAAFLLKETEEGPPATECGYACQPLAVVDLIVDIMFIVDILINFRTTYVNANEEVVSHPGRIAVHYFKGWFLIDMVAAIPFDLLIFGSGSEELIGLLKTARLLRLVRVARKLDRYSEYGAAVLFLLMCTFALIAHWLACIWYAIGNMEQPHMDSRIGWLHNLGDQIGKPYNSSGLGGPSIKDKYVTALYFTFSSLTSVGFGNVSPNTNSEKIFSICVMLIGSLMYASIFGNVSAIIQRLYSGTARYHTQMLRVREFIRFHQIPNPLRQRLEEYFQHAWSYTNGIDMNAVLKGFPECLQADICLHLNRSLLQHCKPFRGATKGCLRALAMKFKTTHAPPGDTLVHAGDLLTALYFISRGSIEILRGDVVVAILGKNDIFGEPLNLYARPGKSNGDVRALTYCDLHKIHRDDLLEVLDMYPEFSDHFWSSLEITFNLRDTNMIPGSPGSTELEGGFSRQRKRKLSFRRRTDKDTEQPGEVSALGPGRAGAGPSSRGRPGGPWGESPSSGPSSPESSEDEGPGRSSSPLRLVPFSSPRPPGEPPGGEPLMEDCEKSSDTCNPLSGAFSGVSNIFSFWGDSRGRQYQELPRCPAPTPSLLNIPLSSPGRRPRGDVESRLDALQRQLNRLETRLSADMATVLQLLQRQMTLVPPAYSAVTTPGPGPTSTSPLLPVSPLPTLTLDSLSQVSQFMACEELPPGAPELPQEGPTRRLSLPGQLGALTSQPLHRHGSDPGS
row,SMILES,"hERG current change (%, negative = inhibition) at 1uM [%]"
1,Cc1ccc(C2(C)CC(C)(C)N(C(=O)CSc3nnc(C)s3)c3ccccc32)cc1 (stereo not shown),10.3
2,COc1cc(C(=O)OC2C[C@H]3CC[C@@H](C2)N3)ccc1O (stereo partly shown),7.14
3,CC(=O)N(c1cccc(C)c1)S(=O)(=O)c1ccc(Cl)cc1,44.5
4,Cc1ccccc1OCCn1cnc2cc([N+](=O)[O-])ccc2c1=O,9.4
5,O=C(C[n+]1cccc(CNC(=O)c2ccc(OC(F)F)cc2)c1)Nc1cc(C(F)(F)F)ccc1Cl.[Cl-],10.2
6,CCNc1nc2[nH]c(=O)c3c(c2s1)OC(N)=C(C#N)C3c1cccs1 (stereo not shown),5.46
7,Cc1ccc2[nH]c(-c3ccccc3)c(CN3CCOCC3)c(=O)c2c1,1.51
8,CCOC(=O)C(NCc1ccc2c(c1)OCO2)(NC(=O)c1ccccc1)C(F)(F)F (stereo not shown),3.68
9,CSCC[C@H](NC(=O)OC(C)(C)C)c1nnc(SCc2cccc(F)c2)o1,-0.217
10,O=C(O)c1cc(NS(=O)(=O)c2ccc3ccccc3c2)ccc1O,10.8
11,Nc1cc(Nc2ccccc2)c2nonc2c1[N+](=O)[O-],14.6
12,Cc1cccc(-c2nc(CS(=O)CC(=O)N3CCCCC3)c(C)o2)c1 (stereo not shown),19.5
13,CC1(C)Cc2nc3nc(SCC(=O)Nc4ccccc4)nc(N)c3cc2CO1,12.9
14,S=C(NCCCN1CCOCC1)NCCCN1CCOCC1,14.5
15,CNC(=S)N(CCc1c(C)[nH]c2ccc(C)cc12)Cc1ccc(OC)c(OC)c1,8.62
16,COc1ccc(N2CCN(S(=O)(=O)c3ccc(-n4cnnn4)c(C)c3)CC2)cc1,11.3
17,CC(C)C(NS(=O)(=O)c1cccc2nsnc12)C(=O)NCCC1=CCCCC1 (stereo not shown),1.65
18,Fc1cccc(Cl)c1CN1CCN(c2nc3ccccc3s2)CC1,11.9
19,CC(C)NC(=O)NC(=O)CN1c2cccc3cccc(c23)S1(=O)=O,11.8
20,Cc1ccccc1OCC(=O)Nc1sc2c(c1C#N)CCC2,-0.489
21,CN(C)CCOC1c2ccccc2-c2ccccc21.O=C(O)C(=O)O,12.2
22,O=C1CCN(CCc2ccccc2)CCN1CCSc1ccc(Br)cc1,-25.8
23,CN1CCN(c2ccc(Cl)cc2NC(=O)C2COc3ccccc3O2)CC1 (stereo not shown),-3.62
24,CN(CC(=O)NCCc1ccc(F)cc1)Cc1ccc(Br)cc1,5.77
25,Cc1nc(C(=O)NNC(=O)c2ccccc2)c(C(F)(F)F)o1,12.6
26,O=C(C1CCN(c2ncnc3c2nc2n3CCCCC2)CC1)N1CCN(c2cccc(Cl)c2)CC1,16.3
27,COc1ccc2c(CC(=O)Nc3cccc(S(=O)(=O)N4CCOCC4)c3)coc2c1,-13.3
28,Cn1cc(/C(Cc2ccccc2)=N\O)c2ccccc21,9.46

row,SMILES,"hERG current change (%, negative = inhibition) at 1uM [%]"
1,CCOc1ccccc1NC(=S)N1CCN(c2nc(-c3cccc(OC)c3)cs2)CC1,8.82
2,C(=N\Nc1nncc2ccccc12)/c1ccccc1,13.7
3,COc1ccc(C(CNC(=O)C(=O)NC2CCCC2)N2CCN(C)CC2)cc1 (stereo not shown),-14.4
4,COc1ccc(-c2c(C)c3cc(O)ccc3oc2=O)cc1,13.2
5,COc1ccccc1-n1cnnc1SCC(=O)Nc1cccc(S(N)(=O)=O)c1,10.4
6,COc1ccc(Cl)cc1NS(=O)(=O)c1cccc(C(=O)NCC(c2ccco2)N2CCCC2)c1 (stereo not shown),6.73
7,COc1ccccc1C(=O)C1CCCN(C(=O)CSc2ccccn2)C1 (stereo not shown),-3.2
8,COc1ccnc(Oc2ccccc2)c1C(N)=O,13.5
9,Cc1ccc2c(Cl)cc(Cl)c(OCC(=O)Nc3cccc(S(=O)(=O)N(C)C)c3)c2n1,6.17
10,CC(C)(C)c1ccc(C(=O)C2CCCN(C(=O)CCn3cncn3)C2)cc1 (stereo not shown),3.76
11,CCOC(=O)C1=C(C)NC(=O)NC1c1ccc(OC(=O)c2ccco2)cc1 (stereo not shown),5.81
12,CCN(CC)S(=O)(=O)c1cccc(C(=O)N/N=C2\CCCC(=O)C2)c1,7.45
13,Oc1c(CN2CCN(c3ccccc3)CC2)cc(Br)c2cccnc12,0.303
14,Cc1cc(C)cc(N2C(=O)NC(=O)/C(=C\c3cc(C)n(C)c3C)C2=O)c1,10.5
15,Cc1cc(C)c(S(=O)(=O)N2CCN(C)CC2)c(C)c1,11.2
16,O=C(Nc1ccccc1O)c1cccc(S(=O)(=O)Nc2ccccc2O)c1,15.1
17,COC(=O)c1cc(C(=O)c2ccc(C(C)(C)C)cc2)c[nH]1,8.12
18,Cc1n[nH]c(C)c1C(=O)CC1(O)C(=O)N(CCc2ccccc2)c2ccc(Br)cc21 (stereo not shown),15.3
19,O=C(NCc1ccc2c(c1)OCO2)c1cccc(N2CCCC2=O)c1,7.94
20,O=C(c1cccc(Br)c1)N1CCN(S(=O)(=O)N2CCOCC2)CC1,2.74
21,COc1ccccc1NC(=O)C(=O)N/N=C(\C)CC(=O)Nc1ccc(OCc2ccccc2)cc1,9.87
22,CCN(CCNC(=O)Cn1c(=O)sc2ccccc21)c1ccccc1,-10.1
23,Cc1nn(Cc2c(F)c(F)c(F)c(F)c2F)c(C)c1NC(=O)c1nn(C)cc1Br,8.25
24,O=C(O)CCC(=O)Nc1sc2c(c1C(=O)NCc1ccccc1)CCCC2,0.699
25,O=C(Nc1ccccc1)/C(=C/c1ccccc1)NC(=O)c1ccco1,15.7
26,O=C(COc1cccnc1[N+](=O)[O-])Nc1ccc(S(=O)(=O)N2CCOCC2)cc1,14.2
27,Cc1ccc(-c2nn3c(C)nnc3c3ccccc23)cc1S(=O)(=O)NC(C)c1ccccc1 (stereo not shown),-14.4
